Source: PMC4336329 (PLoS ONE, 2015)
Screen size: about 310,000 compounds; about 2,200 (0.71%) showed an effect of 50% or more. The effect is printed as a negative number. The list shows a part of the results.

What follows are compounds tested against human ether-à-go-go-related gene (hERG) potassium channel (human, UniProt Q12809) (assay: primary screen, population patch clamp on CHO cells stably expressing hERG).
Sequence of human ether-à-go-go-related gene (hERG) potassium channel (Q12809 whole entry, looked up): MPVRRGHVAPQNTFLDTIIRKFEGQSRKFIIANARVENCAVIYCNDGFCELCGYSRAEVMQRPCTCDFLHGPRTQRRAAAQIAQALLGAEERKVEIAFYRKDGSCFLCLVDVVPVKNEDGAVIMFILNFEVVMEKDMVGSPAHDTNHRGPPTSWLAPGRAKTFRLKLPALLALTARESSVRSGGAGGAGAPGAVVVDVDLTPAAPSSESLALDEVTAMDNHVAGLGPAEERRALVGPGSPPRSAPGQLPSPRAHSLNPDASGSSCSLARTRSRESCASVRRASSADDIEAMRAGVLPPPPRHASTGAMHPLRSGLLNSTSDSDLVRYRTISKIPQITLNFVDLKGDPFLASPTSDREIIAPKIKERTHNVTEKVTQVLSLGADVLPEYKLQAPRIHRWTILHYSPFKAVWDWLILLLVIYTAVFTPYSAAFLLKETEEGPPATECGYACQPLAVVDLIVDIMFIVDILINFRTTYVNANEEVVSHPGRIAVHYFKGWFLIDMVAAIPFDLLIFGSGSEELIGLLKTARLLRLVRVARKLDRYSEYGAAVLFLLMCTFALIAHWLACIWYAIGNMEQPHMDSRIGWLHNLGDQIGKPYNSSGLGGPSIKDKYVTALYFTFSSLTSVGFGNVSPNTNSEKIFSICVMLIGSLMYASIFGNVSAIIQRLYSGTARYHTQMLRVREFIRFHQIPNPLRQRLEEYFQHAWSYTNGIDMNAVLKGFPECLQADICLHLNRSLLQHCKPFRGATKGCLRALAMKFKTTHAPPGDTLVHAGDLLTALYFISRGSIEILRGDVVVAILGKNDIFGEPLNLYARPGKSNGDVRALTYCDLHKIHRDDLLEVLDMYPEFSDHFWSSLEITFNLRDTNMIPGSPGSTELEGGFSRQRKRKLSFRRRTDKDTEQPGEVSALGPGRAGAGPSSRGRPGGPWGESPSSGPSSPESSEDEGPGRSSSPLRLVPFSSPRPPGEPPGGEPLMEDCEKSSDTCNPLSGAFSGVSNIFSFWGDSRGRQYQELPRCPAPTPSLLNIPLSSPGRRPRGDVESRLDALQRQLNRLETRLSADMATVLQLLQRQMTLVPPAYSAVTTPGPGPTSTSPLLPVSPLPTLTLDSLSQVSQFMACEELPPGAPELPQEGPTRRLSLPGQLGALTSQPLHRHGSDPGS

Row | Compound | hERG current change (%, negative = inhibition) at 1uM [%]
1 | CC(C)c1ccc(C2C3=C(COC3=O)Nc3cc4c(cc32)OCO4)cc1 (stereo not shown) | -2.91
2 | C=CCOC(=O)/C(=C\c1cccc2ccccc12)NC(=O)c1ccccc1 | 6.44
3 | Clc1ccc(-c2cc3ccccc3[nH]2)cc1 | -6.82
4 | CCOc1cc(N2CCOCC2)c(OCC)cc1NC(=O)Cc1ccccc1OC | 3.05
5 | CCOC(=O)c1cnn2c(N)c(C#N)cnc12 | 14.6
6 | COc1ccc(NS(=O)(=O)c2cc(NC(=O)c3ccncc3)ccc2N2CCOCC2)cc1 | 10.6
7 | CS(=O)(=O)N1N=C(c2ccccc2)CC1c1ccc2nccnc2c1 (stereo not shown) | 6.57
8 | Cc1cc(C(=O)COc2ccccc2C(N)=O)c(C)n1CC1CCCO1 (stereo not shown) | 7.72
9 | Cc1ccc(-c2nnc(N3CC(C)OC(C)C3)c3ccccc23)cc1 (stereo not shown) | 6.65
10 | COc1ccc(C)cc1NC(=O)Nc1ccccc1 | 10.4
11 | CCO[C@H]1OC(C(=O)NCc2nc3ccccc3[nH]2)=C[C@@H](c2ccc(Br)cc2)[C@@H]1CCCO | 13.9
12 | CN(C[C@H](CC1CCCCC1)N(C[C@H](Cc1ccccc1)N(CCc1ccccc1)N=O)N=O)N=O.[Na+] | 10.9
13 | O=C(Nc1cccc(C2OCCCO2)c1)c1cccs1 | 15.7
14 | Cc1ccc(NC(=O)C(=S)NCc2ccco2)cc1 | 6.81
15 | O=C(CN(Cc1ccccc1)C(=O)c1ccc2c(c1)OCCO2)NCc1ccc2c(c1)OCO2 | -11.2
16 | CCn1ccc2c(OCC(=O)NCCc3ccc(OC)c(OC)c3)cccc2c1=O | 13.9
17 | C[C@H](NC(=O)c1ccc(C(C)(C)C)cc1)C(=O)N1CCC2(CC1)NCCc1[nH]cnc12 | 17.7
18 | Cc1nc(N2CCCCC2)c2c(C)c(C(=O)Nc3ccc4c(c3)OCCO4)sc2n1 | 15.8
19 | O=C(CN(C(=O)c1csnn1)c1cccc(F)c1)NCc1ccc2c(c1)OCO2 | 13.9
20 | O=S(=O)(c1ccc(-n2cnnn2)cc1)N1CCC(N2CCCCC2)CC1 | -9.44
21 | CC(NC1CCCCC1)C(O)C12CC3CC(CC(C3)C1)C2.Cl (stereo not shown) | -13.6
22 | O=C1c2ccccc2NC(c2ccc(F)cc2)N1Cc1ccccc1 (stereo not shown) | 9.43
23 | CCOC(=O)C1=C(CC)Nc2ccccc2N=C1NC(=O)c1cccc(S(=O)(=O)N2CCCC2)c1 | 12.9
24 | O=C(NC1CCCCC1)c1ccc(-c2ccccc2[N+](=O)[O-])o1 | 6.82
25 | Cc1nnc(SCC(=O)Nc2nccs2)n1N | -11.7
26 | Cc1cccc(N2C(=O)NC(=O)/C(=C\c3cc(C)n(-c4sc5c(c4C#N)CCCC5)c3C)C2=O)c1C | 9.38
27 | CCOC(=O)/C(C#N)=C\c1cn(C)c2ccccc12 | 17.1
28 | Cc1cc(/C=C2\C(=N)N3N=C(S(C)(=O)=O)SC3=NC2=O)c(C)n1Cc1ccccc1 | 7.52

Row | Compound | hERG current change (%, negative = inhibition) at 1uM [%]
29 | Nc1cc[n+](CC(=O)c2ccccc2)cc1.[Br-] | 19.1
30 | COc1ccccc1N(C)S(=O)(=O)c1ccc(C(=O)OCC(=O)Nc2cc(C)on2)cc1 | 10.7
31 | CN(C)CCCN(C(=O)c1ccc2c(c1)OCCO2)c1nc2cc3c(cc2s1)OCO3.Cl | -11.9
32 | COCCNC(=O)c1ccccc1NC(=O)CSc1ccc(C)cc1 | 7.67
33 | O=C(c1cnn2c(C(F)(F)F)cc(-c3ccccc3)nc12)N1CCCCC1c1cccnc1 (stereo not shown) | 8.17
34 | COc1ccccc1NC(=O)c1cc(C(=O)Nc2ccccc2OC)n(C)n1 | 13.9
35 | CC(C)(C)C(=O)CSc1nccc(=O)[nH]1 | 7.65
36 | CCN(CC)C(=O)C1CCCN(C(=O)c2cc(COc3ccc4ncccc4c3)on2)C1 (stereo not shown) | 7.18
37 | CCN(CC)C(=O)c1ccc(S(=O)(=O)NCc2cccnc2)cc1 | 14.3
38 | COC(=O)c1sccc1-n1cccc1C(=O)C(=O)N1CCOCC1 | -87.6
39 | COC(=O)c1c(NC(=O)CC2SC(N)=NC2=O)sc2c1CCC(C(C)(C)C)C2 (stereo not shown) | 9.34
40 | COc1cccc(OC)c1C(=O)NC(=S)N1CCOCC1 | 14.8
41 | COc1ccc(-c2noc(-c3ccccc3-c3ccccc3)n2)cc1OC | 11
42 | CC(C)Oc1ccc(C(=O)NC2CCCCC2)cc1 | 12.1
43 | CCOc1ccc(CN(C)C(C)C(=O)NCCc2ccc(F)cc2)cc1 (stereo not shown) | -57.1
44 | COc1cc(OC)c(C2CC(=O)N3CN(C)CSC3=C2C#N)cc1OC (stereo not shown) | 15.6
45 | CC(OC(=O)Cc1coc2cc3c(cc12)CCC3)C(=O)NCc1ccc2c(c1)OCO2 (stereo not shown) | -5.75
46 | Nc1ncc(Br)cc1S(=O)(=O)NCCc1ccccc1 | 15.1
47 | CCCNC(=O)Nc1nc(CC(=O)OCC)cs1 | 23.3
48 | Cc1ccc(S(=O)(=O)N2CCCCC2)cc1NC(=O)COC(=O)C1CC2C=CC1C2 (stereo not shown) | -16.7
49 | CN(C)C(=O)c1ccc(NC(=O)CSc2nc3ccccc3[nH]2)cc1 | 9.86
50 | O=C(O)CN1C(=O)/C(=C/c2cccc(Cl)c2)Oc2ccccc21 | -8.61
51 | COC(=O)c1cc(S(=O)(=O)Nc2nn(C)c3ccccc23)oc1C | 14.7
52 | O=C(COc1cccnc1[N+](=O)[O-])NCc1ccc(F)cc1 | 5.18
53 | COc1ccc(S(=O)(=O)N2CCC3(CC2)OCCN3S(=O)(=O)c2ccc(C)cc2)cc1OC | -7.55
54 | O=C(CN1C(=O)COc2ccc(S(=O)(=O)N3CCCC3)cc21)NC1CC1 | 12.5
55 | COc1ccc(NC(=O)c2ccc(Cl)cc2)c[n+]1[O-] | 5.24
